Sequences with one replicate were seen in a single cluster, so their values are uncertain.
test system: ATP; assay: switch fluorescence ratio, 500 uM ATP over buffer (Cy3 cluster intensity, sum of 5 cycles each) (fold (ratio)); higher = stronger signal-on switching upon ATP binding; sequences stand for … in TCGTCGGCAGCGTCAGATGTGTATAAGAGACAGTTTTTTTTTTTTTTTTTTTTTTTTT…TC; details: aptamer strand: ATP DNA aptamer (quencher-CACCTGGGGGAGTATTGCGGAGGAAGG + anchor), 100 nM annealed; ATP concentration: 500 uM; one replicate
How it was run: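 For every switch-domain sequence, the fluorescence ratio is the mean of per-cluster values, each being summed target-cycle Cy3 intensity over summed buffer-cycle Cy3 intensity. Clusters outside 100-1000 RFU were excluded. On a modified Illumina MiSeq flow-cell, the Cy3-labelled switching-strand clusters were annealed to 100 nM quencher-labelled ATP aptamer, imaged in selection buffer and then after 15 min with 500 uM ATP at 22 °C. Five such cycles were run, with NaOH stripping and re-annealing between them.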
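Note: ATP exposure 15 min at 22 °C before imaging.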

Row | Sequence | switch fluorescence ratio
1 | TCTCAAAAGC | 1.27
2 | GACTAATAAC | 0.996
3 | TAAACAAGGT | 1.61
4 | TAACCCTCT | 1.01
5 | TCATTATCGC | 0.992
6 | ACACCCGGTG | 0.982
7 | CCATCATGCT | 1.02
8 | CGAGGCTTTG | 1
9 | TACGTCAGTT | 1.01
10 | GCATGTACAC | 1.15
11 | TATAGAGGCA | 1
12 | ATGTTATATT | 1.02
13 | TCGCCGGTTC | 1.02
14 | TATCATAGTA | 0.989
15 | TTTACGTTAT | 1.34
16 | AGTGTGGTGT | 1.03
17 | ATAGGGATAC | 1.19
18 | GCGCCAGCAG | 0.978
19 | GTTCAATTA | 0.98
20 | GAGGCTTTCC | 1.06
21 | AGTCATGCCT | 1.01
22 | TTCGCTATTT | 1.04
23 | CGGATTGTC | 0.994
24 | ACCCCCTTGT | 1.37
25 | GTGGCTTTGC | 0.937
26 | ACAGCGGTTC | 1.05

Row | Sequence | switch fluorescence ratio
27 | AACGGCTGGG | 0.997
28 | CCAGTGATC | 1.06
29 | AAATAAGTTG | 1.06
30 | TGTTTGTCGA | 1.06
31 | TTGAACGATC | 0.989
32 | GGCGTTAAGA | 1.09
33 | GATGCAAGGT | 1.3
34 | CGACCCACCA | 1.37
35 | ACTGTATCGA | 1.16
36 | TTATTTTAGA | 0.968
37 | GATGTGTTGC | 0.989
38 | TCAGCGCAGG | 1.06
39 | GCACATATTC | 1.16
40 | ATTAAGTACG | 1.21
41 | GTTGCTAATC | 1.05
42 | TTGCCTGT | 1.06
43 | CCCAGTGCTG | 1.15
44 | GCTCATCAGT | 1
45 | GGAAAATTAT | 0.998
46 | GGCATCGAGA | 1.06
47 | TCTAAGGATG | 0.985
48 | GCTCTTACAT | 0.985
49 | CGCAGGTGTC | 1.83
50 | TCGATCCTTG | 1.03
51 | CCCCATACGG | 1.38
52 | CCCACGGCTG | 1.23

Row | Sequence | switch fluorescence ratio
53 | ATTTTATTA | 1.02
54 | CGTTCGCCCT | 1.28
55 | GATACGGAGT | 1.04
56 | CGTAGACTGG | 1
57 | TTCGTAAAAT | 0.993
58 | AAAACGGCCG | 0.916
59 | TAAGACCTG | 1.02
60 | TTTATGACCG | 1.03
61 | CAGATATAAG | 0.943
62 | GCGAGATTGG | 0.988
63 | AATCCGTGGA | 0.948
64 | TATCATTTCA | 1.04
65 | TCCTGATTCA | 1.04
66 | GGCAGATTAA | 0.962
67 | TCTGGGGT | 0.969
68 | TTTATTGTCT | 1.04
69 | CCGGTGCCGC | 1.08
70 | GGCTTGCTAC | 1.05
71 | AGTTGAGTTG | 1.09
72 | CCGTCCCGGA | 1
73 | TTACGTAGCT | 1.5
74 | TACCTGTATT | 0.963
75 | CAGATGAAAT | 1.04
76 | GGTGGATTTT | 1.03
77 | CAAAGGATCT | 0.992
78 | CGGCGATCCC | 1.01

Row | Sequence | switch fluorescence ratio
79 | GTGGAATCGC | 0.994
80 | CTGTGCTAAA | 1.04
81 | ATGTTCGCTA | 1.06
82 | CGATATACGT | 1.05
83 | TCCTAATTGT | 1.03
84 | GATTTGATCG | 0.964
85 | TGTCAGATTT | 0.989
86 | GATTAACGAT | 1.05
87 | CAGGTATGGC | 1.02
88 | TGACGTATC | 1.06
89 | TGCTTA | 0.958
90 | AGGCAATTTA | 0.999
91 | GTCGAACTTG | 0.93
92 | TTGACGTTAG | 0.971
93 | CGACATGGTT | 1
94 | GATGGGATAT | 0.981
95 | ACGGAAGCAA | 1.27
96 | TTGGCTATAG | 1
97 | AACGGCGTCA | 1
98 | GTATAATGG | 1.02
99 | TATCGTTGAC | 0.966
100 | TACTGTTGTG | 1.04
101 | TAATCGGGAT | 0.973
